Structures can show the parent of a compound that is named as a salt. ± gives the standard deviation of the averaged measurements. The list shows a part of the results. Most values come without repeats; read them as rough.
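Also: stationary (unshaken) cultures in 96-well plates, started at OD600 0.05 from mid-exponential cells, with compounds supplied from DMSO stocks.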

The assay relates to Escherichia coli W3110. The assay is described as follows: planktonic growth (OD600) relative to untreated control; higher = more growth. The settings on record: 10 µM; 20-24 h; 30 °C; TB.
`C=C(C)[C@@H]1[C@H]2OC(=O)[C@@H]1[C@]1(O)C[C@H]3O[C@]34C(=O)O[C@H]2[C@]14C` [Picrotoxinin] yielded a planktonic growth of 98%.
With `Cc1cccc(C)c1NC1=NCCCS1` [Xylazine] the figure was 95%; with `NC(=O)C[S+]([O-])C(c1ccccc1)c1ccccc1` (stereo not drawn) [Modafinil], 97%; with `CN1CCN(C(=O)OC2c3nccnc3C(=O)N2c2ccc(Cl)cn2)CC1` (stereo not drawn) [Zopiclone], 93%.
The molecule `Clc1ccc(C(OCCN2CCCCC2)c2ccccc2)cc1` (stereo not drawn) [Cloperastine hydrochloride] had a planktonic growth of 96%.
The same measure for `C[C@]12CC[C@H](O)C[C@H]1CC[C@@H]1[C@@H]2C[C@@H](O)[C@]2(C)[C@@H](C3=CC(=O)OC3)CC[C@]12O` [Digoxigenin]: 101 ± 2.8%.
For `CC(Cc1ccccc1)NCCC(c1ccccc1)c1ccccc1` (stereo not drawn) [Prenylamine lactate], the planktonic growth was determined as 104%.
The same measure for `CC(=O)NC1CCSC1=O` (racemic) [N-Acetyl-DL-homocysteine Thiolactone]: 107%; for `C[C@]12CC[C@@H](O)C[C@H]1CC[C@@H]1[C@@H]2CC[C@]2(C)C(=O)CC[C@@H]12` [3-alpha-Hydroxy-5-beta-androstan-17-one]: 94%; for `C#CCN(C)[C@H](C)Cc1ccccc1` [Selegiline hydrochloride]: 100%.
With `CN(C)C(=O)Oc1ccc[n+](C)c1` [Pyridostigmine iodide] the figure was 106%; with `O=c1[nH]c2ccccc2n1C1CCN(CCCC(c2ccc(F)cc2)c2ccc(F)cc2)CC1` [Pimozide], 103%.
The same measure for `NCCCNCCSP(=O)(O)O` [Amifostine]: 72%.
As for `CC1OC(OC2/C=C/C=C/C=C/C=C/CC/C=C/C=C/[C@H](C)[C@@H](O)[C@@H](C)[C@H](C)OC(=O)CC(O)CC(O)CC(O)CCC(O)C(O)C[C@]3(O)CC(O)C(C(=O)O)C(C2)O3)C(O)C(N)C1O` (stereo partly drawn) [Nystatine], the planktonic growth is 101%.
With `CNC(C)(C)Cc1ccccc1` [Mephentermine hemisulfate] the figure was 102%; with `C[C@]12CCC(=O)C(O)=C1CC[C@@H]1[C@@H]2CC[C@]2(C)C(=O)CC[C@@H]12` [Formestane], 94%; with `CC(C)C[C@H]1C(=O)N2CCC[C@H]2[C@]2(O)O[C@](NC(=O)[C@@H]3C=C4c5cccc6[nH]c(Br)c(c56)C[C@H]4N(C)C3)(C(C)C)C(=O)N12` [Bromocryptine mesylate], 79%.
The same measure for `CCNCC(O)c1cccc(O)c1` (stereo not drawn) [Etilefrine hydrochloride]: 86%.
Take `CC(C)(N)Cc1ccccc1` [Phentermine hydrochloride]: the planktonic growth was 89%.
The same measure for `CNC(=O)Oc1ccc2c(c1)[C@]1(C)CCN(C)[C@@H]1N2C` [Eserine hemisulfate salt]: 102%.
With `CN(C)C(=O)Oc1cccc([N+](C)(C)C)c1` [Neostigmine bromide] the figure was 97%; with `COc1ccc(C(CN(C)C)C2(O)CCCCC2)cc1` (stereo not drawn) [Venlafaxine], 96%.
Molecule `CC(=O)[C@H]1CC[C@H]2[C@@H]3CC[C@H]4C[C@H](O)CC[C@]4(C)[C@H]3C(=O)C[C@]12C` [Alfaxalone] gave a planktonic growth of 101%.
Consider `C=C1C[C@@H]2[C@H](CC[C@]3(C)C(=O)CC[C@@H]23)[C@@]2(C)C=CC(=O)C=C12` [Exemestane], for which the planktonic growth came to 102%.
With `C[C@]12C/C(=C/O)C(=O)C[C@@H]1CC[C@@H]1[C@@H]2CC[C@@]2(C)[C@H]1CC[C@]2(C)O` [Oxymetholone] the figure was 98%; with `COC[C@@H](NC(C)=O)C(=O)NCc1ccccc1` [Lacosamide], 92%; with `C[C@]12COC(=O)C[C@@H]1CC[C@@H]1[C@@H]2CC[C@@]2(C)[C@H]1CC[C@]2(C)O` [Oxandrolone], 93%.
With `CN1C(=O)CCS(=O)(=O)C1c1ccc(Cl)cc1` (stereo not drawn) [Chlormezanone] the figure was 89%; with `COc1ccc(OC)c(C(O)C(C)N)c1` (stereo not drawn) [Methoxamine hydrochloride], 85%.
The same measure for `CCC(=O)O[C@H]1CC[C@H]2[C@@H]3CCC4=CC(=O)CC[C@]4(C)[C@H]3CC[C@]12C` [Testosterone propionate]: 109%.
For the molecule `C[C@@H]1CN([C@H]2CC[C@](C#N)(c3ccc(F)cc3)CC2)CC[C@]1(C(=O)O)c1ccccc1` [Levocabastine hydrochloride], the planktonic growth was 100%.
For `C=CCC1(CC(C)C)C(=O)NC(=O)NC1=O` [Butalbital], the planktonic growth is 100%.
The same measure for `O=C(CCCN1CCC(n2c(=O)[nH]c3ccccc32)CC1)c1ccc(F)cc1` [Benperidol]: 105%; for `OC(c1ccccc1)(c1ccccc1)C1CCNCC1` [Azacyclonol]: 96%.
With `NC(=O)OCCCc1ccccc1` [Phenprobamate] the figure was 97%; with `C[N+]1(C)CCCC(OC(=O)C(O)(c2ccccc2)c2ccccc2)C1` (stereo not drawn) [Mepenzolate bromide], 99%; with `CCCC(C)(COC(N)=O)COC(=O)NC(C)C` (stereo not drawn) [Carisoprodol], 98%.
`CC(O)(CS(=O)(=O)c1ccc(F)cc1)C(=O)Nc1ccc(C#N)c(C(F)(F)F)c1` (stereo not drawn) [Bicalutamide]: the planktonic growth is 98%.
In turn, `CCOC(=O)c1cncn1[C@H](C)c1ccccc1` [Etomidate] had a planktonic growth of 110%.
The same measure for `NCC1(CC(=O)O)CCCCC1` [Gabapentin]: 97%.
The same measure for `CC(N)C(O)c1ccccc1` (stereo not drawn) [Phenylpropanolamine hydrochloride]: 97%; for `O=C(CCCN1CCC2(CC1)C(=O)NCN2c1ccccc1)c1ccc(F)cc1` [Spiperone]: 106%; for `C=C1CC[C@@]2(O)[C@H]3Cc4ccc(O)c5c4[C@@]2(CCN3CC2CC2)[C@H]1O5` [Nalmefene hydrochloride]: 96%.
The same measure for `O=[N+]([O-])O[C@H]1CO[C@H]2[C@@H]1OC[C@H]2O[N+](=O)[O-]` [Isosorbide dinitrate]: 106%; for `O=c1[nH]oc2c1CCNC2` [THIP Hydrochloride]: 102%.
`CC[C@@H](CO)NC(=O)[C@@H]1C=C2c3cccc4[nH]cc(c34)C[C@H]2N(C)C1` [Methylergometrine maleate]: the planktonic growth stood at 90%.
The same measure for `Cc1cc(C(C#N)c2ccc(Cl)cc2)c(Cl)cc1NC(=O)c1cc(I)cc(I)c1O` (stereo not drawn) [Closantel]: 95%.
As for `C[C@@H]1C[C@@H]([C@H](O)CC2CC(=O)NC(=O)C2)C(=O)[C@@H](C)C1` [Cycloheximide], the planktonic growth came out at 93%.

The values are drawn from the supplement of paper PMC7580552.
